Laboratory results from publication PMC4336329 (PLoS ONE, 2015).
Out of some 310,000 compounds screened, about 14,000 (4.5%) showed an effect of 50% or more. Effects have a minus sign here. This is one part of the list.
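Also: peak tail current of the secondary pulse compared with the same well before compound.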

These compounds were tested against human ether-à-go-go-related gene (hERG) potassium channel (human, UniProt Q12809) (assay: primary screen, population patch clamp on CHO cells stably expressing hERG).
human ether-à-go-go-related gene (hERG) potassium channel, sequence (Q12809 whole entry, looked up): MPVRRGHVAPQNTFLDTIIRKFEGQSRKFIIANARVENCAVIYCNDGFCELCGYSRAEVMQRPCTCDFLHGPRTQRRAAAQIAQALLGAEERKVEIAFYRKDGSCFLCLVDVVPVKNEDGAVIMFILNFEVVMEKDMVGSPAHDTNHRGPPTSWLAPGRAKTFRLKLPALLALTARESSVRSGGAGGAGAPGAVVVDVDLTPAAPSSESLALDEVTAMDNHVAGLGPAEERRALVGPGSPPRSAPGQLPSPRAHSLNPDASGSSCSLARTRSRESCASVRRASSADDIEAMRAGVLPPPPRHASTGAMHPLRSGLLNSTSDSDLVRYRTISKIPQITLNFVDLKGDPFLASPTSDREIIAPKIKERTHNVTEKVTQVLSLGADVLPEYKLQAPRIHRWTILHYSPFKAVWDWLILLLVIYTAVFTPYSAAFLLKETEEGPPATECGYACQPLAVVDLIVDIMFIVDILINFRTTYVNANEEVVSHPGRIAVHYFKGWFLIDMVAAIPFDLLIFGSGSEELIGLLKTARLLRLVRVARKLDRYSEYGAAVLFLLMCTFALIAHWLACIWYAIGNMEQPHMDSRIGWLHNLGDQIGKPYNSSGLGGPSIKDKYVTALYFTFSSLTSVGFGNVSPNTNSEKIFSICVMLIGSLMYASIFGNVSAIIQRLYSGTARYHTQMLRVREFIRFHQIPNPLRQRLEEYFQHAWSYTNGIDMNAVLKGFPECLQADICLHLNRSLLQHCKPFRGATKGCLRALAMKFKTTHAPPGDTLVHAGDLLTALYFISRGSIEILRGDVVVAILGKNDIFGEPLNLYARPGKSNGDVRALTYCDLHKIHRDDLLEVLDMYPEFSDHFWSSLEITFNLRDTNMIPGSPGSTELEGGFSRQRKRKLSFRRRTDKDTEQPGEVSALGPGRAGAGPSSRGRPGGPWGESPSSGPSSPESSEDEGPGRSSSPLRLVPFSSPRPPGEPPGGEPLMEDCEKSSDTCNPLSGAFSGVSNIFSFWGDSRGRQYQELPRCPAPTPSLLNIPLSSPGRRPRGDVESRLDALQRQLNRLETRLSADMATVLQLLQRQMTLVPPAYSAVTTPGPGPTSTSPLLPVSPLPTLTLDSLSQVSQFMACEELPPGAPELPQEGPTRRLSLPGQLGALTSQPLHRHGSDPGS
In the case of `Cc1cccc(C(=O)Nc2cccc(OC(=O)c3cccc(C)c3)c2)c1`, the “hERG current change (%, negative = inhibition) at 10uM” value is reported as 10.3%. In the case of `CCCNC(=O)c1cc(S(=O)(=O)N2CCc3ccccc32)cn1C`, the “hERG current change (%, negative = inhibition) at 10uM” value is reported as -0.715%. For `COc1ccc(C2CC(c3ccc4ccccc4c3)=NN2C(=O)CN2CCC(C(N)=O)CC2)cc1` (stereo not shown), the “hERG current change (%, negative = inhibition) at 10uM” value was 3.17%. With `COc1cccc(-c2cc3nc(-c4ccccc4)cc(N4CCC5(CC4)OCCO5)n3n2)c1` the “hERG current change (%, negative = inhibition) at 10uM” value was 5.79%. For `O=C(CCNC(=O)c1ccccc1Cl)Nc1ccc(Cl)c(C(F)(F)F)c1`, the “hERG current change (%, negative = inhibition) at 10uM” value was 4.2%. With `C/C(=N/NS(=O)(=O)c1ccc(CC(C)C)cc1)c1ccncc1` the “hERG current change (%, negative = inhibition) at 10uM” value was 10.4%. For `COc1ccccc1NC(=O)Nc1nnc(Cc2ccccc2F)s1`, the “hERG current change (%, negative = inhibition) at 10uM” value was 9.06%. With `CC1CCC2(CC1)NC(=O)N(CC(=O)N1CCN(S(=O)(=O)c3ccc4c(c3)CCC4)CC1)C2=O` (stereo not shown) the “hERG current change (%, negative = inhibition) at 10uM” value was -6.01%. With `COc1cc(CC(=O)OCC(=O)c2c[nH]c3ccccc23)cc(OC)c1OC` the “hERG current change (%, negative = inhibition) at 10uM” value was -9.58%. `CCCCN(C(=O)CSc1cc(C)c2ccccc2n1)c1c(N)n(Cc2ccccc2)c(=O)[nH]c1=O` was tested, and the “hERG current change (%, negative = inhibition) at 10uM” value was -23%. In the case of `Cn1nc(-c2ccccc2)c(C(O)c2ccc(Cl)cc2)c1Cl` (stereo not shown), the “hERG current change (%, negative = inhibition) at 10uM” value is reported as 1.55%. With `Cc1cc(C)cc(NC(=O)C2CCCN2S(=O)(=O)c2ccc3c(c2)n(C)c(=O)c(=O)n3C)c1` (stereo not shown) the “hERG current change (%, negative = inhibition) at 10uM” value was -1.95%. For `COc1cccc(OC)c1C(=O)Nc1ccc2c(c1)N(S(=O)(=O)c1cccs1)CCC2`, the “hERG current change (%, negative = inhibition) at 10uM” value was 10.3%. For `CS(=O)(=O)c1ccc(Cl)c(NC(=O)COC(=O)CCc2c[nH]c3ccccc23)c1`, the “hERG current change (%, negative = inhibition) at 10uM” value was -38.8%. For `COc1ccc2c3c(cccc13)C(=O)N(O)C2=O`, the “hERG current change (%, negative = inhibition) at 10uM” value was -24%. With `Fc1cccc(NC(=S)NCCCN2CCOCC2)c1` the “hERG current change (%, negative = inhibition) at 10uM” value was -0.1%. `CC1(C)CN(O)CCN1O` was tested, and the “hERG current change (%, negative = inhibition) at 10uM” value was 9.6%. `O=C(NC1CCCC1)C1CCN(C(=O)Nc2cccc(Cl)c2)CC1` was tested, and the “hERG current change (%, negative = inhibition) at 10uM” value was 11.9%. `Cc1nc2cc(NS(=O)(=O)c3cccc4cccnc34)ccc2s1` was tested, and the “hERG current change (%, negative = inhibition) at 10uM” value was 5%. `COc1ccc(CC(=O)NCc2n[nH]c(=S)n2-c2ccc(F)cc2)cc1` was tested, and the “hERG current change (%, negative = inhibition) at 10uM” value was 41.8%. For `O=C(O)C(=O)O.O=C(c1cccnc1)N1CCN(Cc2ccc3ccccc3c2)CC1`, the “hERG current change (%, negative = inhibition) at 10uM” value was -31%. `CCCc1ccc(NC(=O)C2CCN(c3cnccn3)CC2)cc1` was tested, and the “hERG current change (%, negative = inhibition) at 10uM” value was -18.7%. With `CCCN(CCC)C(=O)c1cc2c(=O)n3cccc(C)c3nc2s1` the “hERG current change (%, negative = inhibition) at 10uM” value was -2.75%. For `CCOC(=O)N/N=C1\CC(C)S(=O)(=O)c2ccc(Cl)cc21` (stereo not shown), the “hERG current change (%, negative = inhibition) at 10uM” value was -3.27%. With `CN1CCN(S(=O)(=O)c2cccc(C(=O)Oc3ccc(C(C)(C)C)cc3)c2)CC1` the “hERG current change (%, negative = inhibition) at 10uM” value was 22%. In the case of `Cc1cc(C)n(-c2ccc(C(=O)OCC(=O)NCc3ccc(Cl)cc3)cc2)n1`, the “hERG current change (%, negative = inhibition) at 10uM” value is reported as -1.38%. In the case of `COc1ccc(NC(=O)c2cc(C)no2)cc1OC`, the “hERG current change (%, negative = inhibition) at 10uM” value is reported as 14.6%. In the case of `O=C(N/C(=C\c1ccc(F)cc1)C(=O)N1CCOCC1)c1ccccc1`, the “hERG current change (%, negative = inhibition) at 10uM” value is reported as -32%. With `O=C1NCCN1c1ccc(CN2CCN(C3CCCCC3)C(CCO)C2)cc1` (stereo not shown) the “hERG current change (%, negative = inhibition) at 10uM” value was -7.75%. In the case of `N#C/C(=C/c1ccc(N2CCCCCC2)o1)c1cccc(F)c1`, the “hERG current change (%, negative = inhibition) at 10uM” value is reported as -9.82%. With `C=CCN1C(=O)NC(=O)/C(=C/c2ccc(OC)c(CSc3ccccn3)c2)C1=O` the “hERG current change (%, negative = inhibition) at 10uM” value was 7.56%. In the case of `O=C(CCCc1nc2ccccc2s1)NC1CCOC1=O` (stereo not shown), the “hERG current change (%, negative = inhibition) at 10uM” value is reported as -5.33%. In the case of `Cc1[nH]c2ccccc2c1C(=O)CN1CCC(C(N)=O)(N2CCCCC2)CC1`, the “hERG current change (%, negative = inhibition) at 10uM” value is reported as 5.87%. `COc1ccc(S(=O)(=O)Nc2cccc(F)c2)cc1C` was tested, and the “hERG current change (%, negative = inhibition) at 10uM” value was 3.76%. With `CCn1cc(C(=O)NCCc2ccccc2)c(=O)c2cc(S(=O)(=O)N(C)C)ccc21` the “hERG current change (%, negative = inhibition) at 10uM” value was 7.05%. With `O=C(O)CCc1ccc(-c2ccccc2)n1-c1cccc(C(=O)O)c1` the “hERG current change (%, negative = inhibition) at 10uM” value was 21.5%. In the case of `CN(C)c1ccc(C2(c3ccc(N(C)C)cc3)OC(=O)c3cc(N)ccc32)cc1`, the “hERG current change (%, negative = inhibition) at 10uM” value is reported as 22.1%. For `Cc1ccc(N2CC(C(=O)Nc3ccc(S(=O)(=O)N4CCOCC4)cc3)CC2=O)cc1Cl` (stereo not shown), the “hERG current change (%, negative = inhibition) at 10uM” value was 11.4%. With `CSc1cccc(CN2CCN(CCc3ccccc3)C(CCO)C2)c1` (stereo not shown) the “hERG current change (%, negative = inhibition) at 10uM” value was -80.4%. For `O=C1c2cccc3cccc(c23)C(=O)N1OS(=O)(=O)c1ccccc1`, the “hERG current change (%, negative = inhibition) at 10uM” value was 9.49%. With `COc1ccc(N2CCN(C(=O)NC34CC5CC(CC(C5)C3)C4)CC2)cc1` the “hERG current change (%, negative = inhibition) at 10uM” value was -6.95%. With `CCc1[nH]c(C)c(C(C)=O)c1C` the “hERG current change (%, negative = inhibition) at 10uM” value was 12.1%. For `Cc1nnc(SCC(=O)N(C2CCCCC2)C2CCS(=O)(=O)C2)n1N` (stereo not shown), the “hERG current change (%, negative = inhibition) at 10uM” value was 23.7%.
